# From the supplement of paper PMC8047034
# Structures can show the parent of a compound that is named as a salt. The list shows a part of the results. Most values come without repeats; read them as rough.
# System: Ov4Carbo
# Assay: log2 surviving fraction (library drug vs vehicle, or drug + carboplatin vs carboplatin alone; relative to plate median); ovarian cancer lines: OVCAR4 is platinum-sensitive and Ov4Carbo platinum-resistant; higher = more cell survival
# Conditions: library drug concentration 10 µM; 7 days; carboplatin co-treatment 5 µM
row,SMILES,log2 surviving fraction
1,CCCNC(C)C(=O)Nc1ccccc1C (stereo unspecified) [Prilocaine],0.116
2,C[C@]12CC[C@H](O)CC1=CC[C@@H]1[C@@H]2CC[C@]2(C)C(=O)CC[C@@H]12 [Dehydroepiandrosterone (DHEA)],0.0838
3,Nc1ncnc2c1ncn2[C@@H]1O[C@H](COP(=O)(O)OP(=O)(O)OP(=O)(O)O)[C@@H](O)[C@H]1O [ATP (Adenosine-Triphosphate)],1.77
4,CCc1c(Cl)c(O)c(Cl)c(O)c1C(=O)O[C@H]1[C@H](O)[C@H](OC)[C@H](OC/C2=C\C=C\C[C@H](O)/C(C)=C/[C@H](CC)[C@@H](O[C@@H]3OC(C)(C)[C@@H](OC(=O)C(C)C)[C@H](O)[C@@H]3O)/C(C)=C/C(C)=C/C[C@@H]([C@@H](C)O)OC2=O)O[C@@H]1C [Fidaxomicin],0.0469
5,Clc1ccc2c(c1)C(N1CCNCC1)=Nc1ccccc1O2 [Amoxapine],-2.59
6,Cc1cccc(C)c1NC1=NCCCS1 [Xylazine HCl],-0.000628
7,CCN[C@H]1CN(CCCOC)S(=O)(=O)c2sc(S(N)(=O)=O)cc21 [Brinzolamide],1.95
8,CNCCCC12CCC(c3ccccc31)c1ccccc12 [Maprotiline hydrochloride],-1.3
9,CN1CCN(c2c(F)cc3c(=O)c(C(=O)O)cn4c3c2OCN4C)CC1 [Marbofloxacin],0.593
10,OCCOCCN1CCN(C(c2ccccc2)c2ccc(Cl)cc2)CC1 (stereo unspecified) [Hydroxyzine 2HCl],0.278
11,Cc1onc(-c2ccccc2)c1C(=O)N[C@@H]1C(=O)N2[C@@H]1SC(C)(C)[C@@H]2C(=O)O [Oxacillin sodium monohydrate],0.558
